Results published in PubChem BioAssay AID488969 (Vanderbilt High Throughput Screening Facility, 2010).
Where “and” joins values, the source holds several entries; their conditions need not be identical. Equal values may be shown once. The full ranking holds about 110,000 compounds; the median of “z-score” is about -0.1, and the highest 2% start at about 2. The list shows a part of the results. Calls of active or inactive are those of the source.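 Rule for the calls: active = z-score in the third read window above 3 or below -3; inactive = the rest.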

target: Metabotropic glutamate receptor 8 (Rattus norvegicus) (UniProt P70579); assay: mGluR8 Gi/Go-coupled signaling modulation – cell-based, rat, thallium flux, HTS, primary screen (AID 488969); details: HEK293 rat mGluR8, GIRK (G protein-gated inwardly rectifying potassium channel) thallium flux, FluoZin2; at 10 µM; stronger effect = higher value; submaximal glutamate (EC20) added with thallium
Sequence of UniProt P70579 (P70579 whole entry, looked up): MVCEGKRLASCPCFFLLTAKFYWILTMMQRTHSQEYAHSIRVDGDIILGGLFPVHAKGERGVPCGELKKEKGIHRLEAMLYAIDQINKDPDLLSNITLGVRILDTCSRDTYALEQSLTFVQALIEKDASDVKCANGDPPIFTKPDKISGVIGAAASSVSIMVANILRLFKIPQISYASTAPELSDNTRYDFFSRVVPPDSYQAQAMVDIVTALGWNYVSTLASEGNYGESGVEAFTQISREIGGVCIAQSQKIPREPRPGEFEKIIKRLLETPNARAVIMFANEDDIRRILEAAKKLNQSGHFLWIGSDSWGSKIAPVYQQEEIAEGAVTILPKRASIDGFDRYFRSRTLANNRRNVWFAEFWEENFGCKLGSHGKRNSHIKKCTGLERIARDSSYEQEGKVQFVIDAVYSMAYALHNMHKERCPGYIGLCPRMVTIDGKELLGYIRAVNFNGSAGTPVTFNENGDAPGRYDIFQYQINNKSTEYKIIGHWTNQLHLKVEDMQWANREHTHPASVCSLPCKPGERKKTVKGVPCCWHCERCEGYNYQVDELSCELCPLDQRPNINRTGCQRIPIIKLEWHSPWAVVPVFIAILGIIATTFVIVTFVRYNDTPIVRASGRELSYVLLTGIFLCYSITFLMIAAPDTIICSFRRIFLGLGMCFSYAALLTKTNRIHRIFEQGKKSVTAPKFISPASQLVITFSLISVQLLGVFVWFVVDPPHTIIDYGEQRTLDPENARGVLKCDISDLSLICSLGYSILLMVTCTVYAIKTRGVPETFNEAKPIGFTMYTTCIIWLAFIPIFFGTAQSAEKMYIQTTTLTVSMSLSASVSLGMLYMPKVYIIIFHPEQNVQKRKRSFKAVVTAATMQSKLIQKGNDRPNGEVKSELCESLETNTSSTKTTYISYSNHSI

Row | SMILES | z-score
1 | O=C1CN(C(=O)C2CCCC2)CCN1 | -0.114
2 | CCn1c(SCC(=O)c2ccc(O)c(O)c2)nnc1-c1ccc(C)cc1 | -0.297
3 | O=C1CS/C(=N\c2ccccn2)N1C1CCCCC1 | -0.393
4 | COC(CN1C(=O)C(O)=C(C(C)=O)C1c1ccccn1)OC (configuration not stated) | 0.0247
5 | COC(=O)c1[nH]c2ccc(C)cc2c1NC(=O)Oc1ccccc1 | 0.176
6 | Cc1ccc(NC(=O)c2ccc(CNc3c(N4CCOCC4)c(=O)c3=O)cc2)cc1 | -0.0947
7 | COc1ccc(CSc2nnc(Cc3sc(-c4ccccc4)nc3-c3ccccc3)o2)cc1 | -0.0107
8 | NS(=O)(=O)c1ccc(CCNC(=O)c2cccnc2)cc1 | 0.181
9 | Cc1nnc(NCc2ccco2)s1 | -0.797
10 | CCN(Cc1ccccc1)C(=O)CSc1nc(C)cc2c1C(=O)OC2 | -0.695
11 | CC(C)(C)c1cc(C(=O)O)n[nH]1 | 0.168
12 | CC(C)CNC(=O)COc1ncnc2ccccc12 | 0.0239
13 | Cc1ccc(OC(=O)c2ccc(N3CCOCC3)c([N+](=O)[O-])c2)cc1 | 0.485
14 | CC(C)(O)c1cc(=O)sc2nc3ccccc3n12 | 0.0157
15 | COCCCNC(=O)c1c(N)n(-c2ccc3c(c2)OCO3)c2nc3ccccc3nc12 | -0.0775
16 | COc1cc(C(=O)NCC(=O)OCC(=O)c2ccc[nH]2)cc(OC)c1OC | -0.277
17 | CCC(/C=N/NC(=O)CCCCC(=O)N/N=C/C(CC)CC)CC | -0.362
18 | O=C(c1coc(=O)c(Br)c1)N1CCCc2ccccc21 | 0.587
19 | NC(=O)CSc1ncnc2c1oc1ccccc12 | -0.353
20 | COC(=O)C(Cc1cnc(Cl)s1)(C(=O)OC)c1ccc([N+](=O)[O-])cc1[N+](=O)[O-] | 0.221
21 | CC(=O)N(CCC(Cc1ccccc1)c1ccc2c(c1)OCO2)Cc1ccccc1F (configuration not stated) | -0.0818
22 | CC(C)C(NC(=O)CN(c1cccc(F)c1)S(C)(=O)=O)C(C)C | 0.00518
23 | COC(=O)c1ccc(S(=O)(=O)N2C3CCC2CC(NC(=O)NC2CCCCC2)C3)cc1 (configuration not stated) | -0.0401

Row | SMILES | z-score
24 | O=C(CCCN1C(=O)c2ccccc2C1=O)N1CCC(c2ccccc2)C1 (configuration not stated) | -0.552
25 | CCOc1ccccc1-n1c(SCC(=O)Nc2ccc(CC)cc2)nc2n[nH]c(C)c2c1=N | -0.543
26 | COc1ccc(C(=O)c2ccc(Cl)cc2)c2ccccc12 | -0.31
27 | O=C1CC(Nc2ccc(N3CCOCC3)cc2)C(=O)N1C1CCCCC1 (configuration not stated) | -0.286
28 | CCn1c(SCC(=O)Nc2nc3c(s2)CCCC3)nnc1-c1ccccc1 | -0.982
29 | O=C(O)CSc1nnc(SCc2cccc3ccccc23)s1 | -0.421
30 | CC1CCN(C(=O)CN(c2ccc3c(c2)OCO3)S(C)(=O)=O)CC1 | 0.138
31 | CCC(=O)Nc1ccccc1C(=O)NC1CCCCC1 | 0.175
32 | Cc1ccc(F)cc1NC(=O)c1ccc(NS(=O)(=O)c2ccc(Br)s2)cc1 | -0.286
33 | CN(C)c1nc(Oc2ccc(N)cc2)nc(N(C)C)n1 | 0.322
34 | CCn1c(SCc2nc(-c3ccccc3)no2)nc2ccccc21 | active: 3.16
35 | O=C(CN1C(=O)S/C(=C\C=C\c2ccccc2)C1=O)Nc1ccc(O)cc1 | -0.208
36 | O=C(O/N=C1/CCSc2ccccc21)c1ccc(F)cc1 | -0.292
37 | CCCCSc1nnc2c(n1)OC(C(=O)c1ccccc1)Nc1ccccc1-2 (configuration not stated) | -1.48
38 | CC(C#N)(Nc1ccc(Cl)cc1)c1cccnc1 (configuration not stated) | -0.497
39 | Cc1nc2ccccc2cc1C(=O)O | 0.0939
40 | CCOc1ccc(N2C(=O)C(c3ccccc3)=C(c3nc4ccccc4s3)C2NC(C)=O)cc1 (configuration not stated) | -0.263
41 | Cc1nc(SCC(=O)Nc2c(C)n(C)n(-c3ccccc3)c2=O)[nH]c(=O)c1C | -0.363
42 | COCCNC(=O)Cn1cnc2ccc(S(=O)(=O)N3CCC(C)CC3)cc2c1=O | 0.101
43 | Cc1cc(NC(=O)C2CC=CCC2C(=O)O)no1 (configuration not stated) | 0.0781
44 | O=C(N/N=C/c1ccncc1)c1cccc(NC(=O)c2ccccc2Cl)c1 | 0.369
45 | COc1cccc(-n2nc(C(=O)Nc3ccc4c(c3)OCO4)c3ccccc3c2=O)c1 | -0.0495
46 | COCCn1c(-c2ccc(OC)cc2)cnc1SCC(=O)Nc1cccc2ccccc12 | -0.0496

Row | SMILES | z-score
47 | COc1cc(C(=O)N2CCN(Cc3ccccc3C(F)(F)F)CC2)cc(OC)c1OC | 1.31
48 | O=C1CC(SC(=NCc2ccc3c(c2)OCO3)Nc2ccccc2)C(=O)N1 (configuration not stated) | -0.215
49 | CCOC(=O)c1c(CN2CCCCC2)oc2ccc(OC)cc12 | -0.338 and -0.0699
50 | COc1ccc(CNC(=O)Nc2ccc(OC)cc2)cc1 | -0.548
51 | O=C(COc1ccccc1F)N1CCN(S(=O)(=O)/C=C/c2ccccc2)CC1 | -0.229
52 | CCN1C(=O)CC(Sc2ccccc2N)C1=O (configuration not stated) | 0.447
53 | O=C(CSCc1ccc([N+](=O)[O-])cc1)NC1CC2CCC1C2 (configuration not stated) | -0.334
54 | COCCOC(=O)c1c(C)oc2cc(Br)c(OCC(N)=O)cc12 | -0.287
55 | Cc1cc(C(=O)CN2C(=O)c3ccccc3C2=O)c(C)n1C1CC1 | -0.375
56 | CC(C)c1ccc(/C=N/NC(=O)CN(c2cccc(Cl)c2Cl)S(C)(=O)=O)cc1 | -0.0666
57 | Cc1nc(CN2CCN(C(=O)c3ccc(Br)cc3)CC2)cs1 | 0.293
58 | CSc1nc(O)c(C2OC(=O)c3ccccc32)c(=O)[nH]1 (configuration not stated) | -0.0305
59 | O=C(OCC#CCSc1nnc(-c2ccccc2)o1)c1cc2ccccc2o1 | 0.217
60 | Cc1ccc(C2N(C)c3ccccc3-c3nc4ccccc4n32)o1 (configuration not stated) | -2.28
61 | CC(=O)c1cc2c(cc1N/C(=N/S(=O)(=O)c1ccccc1)c1ccc(Cl)cc1)OCO2 | -0.262
62 | COc1ccc(NC(=O)c2cccc(S(=O)(=O)Nc3ccc(Br)cc3)c2)cn1 | -0.375
63 | Cc1oc(C(=O)O)cc1COc1ccc2c3c(c(=O)oc2c1)CCC3 | -0.0436
64 | O=c1cc(-c2ccccc2)nc2nc(-c3ccco3)[nH]n12 | -1.85
65 | Cc1nc(N)c(C#N)c(-c2cccnc2)c1C | 0.356
66 | CN1/C(=C/C2CC(=O)N(c3ccc([N+](=O)[O-])cc3)C2=O)C(C)(C)c2ccccc21 (configuration not stated) | -0.329
67 | N#C/C(=C\c1ccc(N2CCCCC2)c([N+](=O)[O-])c1)c1nn(-c2ccccc2)c(N)c1C#N | -0.188
68 | COc1ccccc1Nc1nc(N)nc(CSc2nnc(C)s2)n1 | 0.149
69 | C=CCn1c(COc2ccc(CC)cc2)nnc1SC/C(O)=C(\C#N)c1nc2ccccc2[nH]1 | -0.182

Row | SMILES | z-score
70 | Cc1cc(C(=O)OCC(=O)c2cccc([N+](=O)[O-])c2)c2ccccc2n1 | -0.157
71 | CCOC(=O)c1ccc(S(=O)(=O)N2CCN(CC(=O)NC(=O)NC3CCCCC3)CC2)cc1 | 0.0417
72 | Cc1cc(C)nc(N(C#N)C(C)C(=O)N(C)C)n1 (configuration not stated) | -0.172
73 | COc1ccc(NC(=O)CSc2nnc(Cc3cccn3C)n2CCc2ccccc2)cc1OC | -0.239
74 | C=CCN1C(=O)S/C(=C\c2ccc(N3CCOCC3)cc2C)C1=O | -0.286
75 | CC1=N/C(=C\c2ccc([N+](=O)[O-])cc2)C(=O)N1c1ccc(Br)c(C)c1 | -0.365
76 | COc1ccccc1Oc1ccc(S(=O)(=O)N2CCCC2)cc1 | -0.351
77 | CCCCCCCC(=O)N/N=C/c1cccnc1 | -0.364
78 | CCCCC(=O)NC(c1ccco1)c1c(O)ccc2ccccc12 (configuration not stated) | -0.666
79 | CS(=O)(=O)N(CC(=O)NC1CCCC1)Cc1ccc(Cl)cc1 | -0.11
80 | CCn1c(CSc2nnc3ccccn23)nc2cc(C(=O)O)ccc21 | 1.35
81 | CC(C)=CCSc1nnc(CCNC(=O)OC(C)(C)C)o1 | -0.41
82 | O=C(O)Cn1nnnc1SCC(=O)Nc1ccc(OC(F)(F)F)cc1 | -0.558
83 | O=C(C1CCCO1)N1CCN(C(=S)Nc2ccc(Cl)c(Cl)c2)CC1 (configuration not stated) | -0.107
84 | O=C(CN1CCSCC1)c1c[nH]c2ccccc12 | 0.0543
85 | Cc1ccccc1Nc1nc(N)nc(CSc2nnc3sc4ccccc4n23)n1 | 0.0724
86 | CC(C)C(c1nnnn1CCc1ccccc1)N1CCN(C(=O)c2ccco2)CC1 (configuration not stated) | 0.0864
87 | CCOC(=O)c1ccc(N/C(=N\S(=O)(=O)c2ccccc2C)c2ccccc2)cc1 | -0.519
88 | CCOC(=O)N1CCN(c2c(NCc3ccccn3)c(=O)c2=O)CC1 | -0.858
89 | Cc1ccc(/C=N/n2nnnc2N)o1 | -0.618
90 | O=C(NCc1cccnc1)Nc1ccc(F)cc1F | 0.0768
91 | CCOc1ccc(CC(=N)C2=C(O)CC(C)(C)CC2=O)cc1OCC | 0.345
92 | CCCCc1ccc(NC(=O)COCC)cc1 | -0.102

Row | SMILES | z-score
93 | COc1cc(/C=C2/C(=O)N=C(N)N2C)cc(OC)c1OC | active: -4.47
94 | COc1ccccc1OCCNc1cc(N2CCCCC2)ccc1[N+](=O)[O-] | -0.113
95 | Cc1cc(C(=O)CN2CCCCC2)c(C)n1-c1ccc(F)cc1 | 0.569
96 | COc1ccc(/C=C/C(=O)NCc2cccnc2)cc1 | -0.233
97 | COc1cc(S(=O)(=O)Nc2cccc(C(=O)O)c2)c(OC)cc1Cl | -0.00865
98 | Cc1cc(C)nc(Nc2ccc(N3CCCC3)cc2)n1 | 0.089
99 | Cc1[nH]nc(-c2ccc(OCc3cnn(-c4ccccc4)c3)cc2O)c1Oc1ccccc1F | -0.0892
100 | O=C1c2ccccc2C(=O)N1CC(O)CN1CCOCC1 (configuration not stated) | 0.337
101 | COc1ccc(-c2noc(CN(C(=O)c3cccs3)C(C)C)n2)cc1 | 0.0511
102 | COc1ccc(NC(=O)CN(C)S(=O)(=O)c2cccs2)cc1 | 0.198
103 | CCn1c(SCC(=O)N2CCCc3ccccc32)nnc1-c1ccoc1C | -0.224
104 | Cc1cc(C)n(-c2cc(=O)n(C)c(=O)n2C)n1 | -0.17
105 | COc1cccc(-n2ccnc2SCC(=O)Nc2cc(OC)ccc2OC)c1 | -0.377
106 | CCCN1C2=NCCN2c2cc(C)c(C)cc21 | -0.319
107 | CCCc1cc(=O)[nH]c(SCC(=O)Nc2cc3c(cc2C(C)=O)OCO3)n1 | -0.969
108 | CCOC(=O)C1CCCN(Cc2ccccc2OCC)C1 (configuration not stated) | 0.609
109 | O=C(NCc1ccccc1)c1ccc(OC2CSC2)cc1 | -0.0484
110 | COc1ccc2[nH]c(C)c(C(=O)CN(C)C)c2c1 | 0.739
111 | COc1cccc(-n2nnc3c(=O)n(CC(=O)OCc4ccccc4)cnc32)c1 | -0.0992
112 | COc1ccc(NC(=O)CN(C)S(=O)(=O)c2ccc(C)cc2)c([N+](=O)[O-])c1 | -0.104
